Laboratory results published in PubChem BioAssay (NCI).
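All cell lines were grown in 96-well plates and treated with compound for 48 hours. Here, GI50 denotes the concentration required for 50% inhibition of growth. TGI is the concentration that stops growth completely.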

Test system: NCI-H322M lung
Test: NCI-60 cell line screen, 48 h

| Structure (SMILES) | GI50 [µM] | TGI [µM] |
| --- | --- | --- |
| CN(C)c1ccc2c(c1)CN1C(=O)c3ccccc3C1=N2 | > 100 | > 100 |
| CCn1nc(C)c2c1C(=O)NC(C)C(=O)N2 (configuration not stated) | – | > 100 |
| COc1ccc(-c2cc(-c3ccc(Cl)cc3)n(C3OC(CO)C(O)C(O)C3O)c(=S)c2C#N)cc1 (configuration not stated) | – | > 100 |
| Cc1csc(/C=N/NC(=O)c2nnn(-c3ccnc4c(C(F)(F)F)cccc34)c2C)c1 | 32.8 | > 100 |
| CC(=O)[CH-]C(=O)c1ccccc1.CC(=O)[CH-]C(=O)c1ccccc1.COc1cccc([O-])c1[O-].[Ti+4] | 73.9 | > 100 |
| O=C(N/C(=C\c1ccccc1[N+](=O)[O-])c1nc2ccccc2[nH]1)c1ccccc1 | – | > 100 |
| CC1SC(c2ccccc2)N(Nc2c3ccccc3nc3ccccc23)C1=O (configuration not stated) | – | > 100 |
| CNC(=S)N/N=C1\CC(c2ccccc2)Oc2ccccc21 (configuration not stated) | – | > 100 |
| CC1(C)CC(=O)/C(=C/C2CCNC2=S)C(=O)N1 (configuration not stated) | – | > 100 |
| Cc1cccc2[nH]c3cc(O)cc(O)c3c(=O)c12 | – | > 10 |
| CCCCC1Cc2ccccc2-c2n1c1ccccc1[n+]2C (configuration not stated) | – | > 100 |
| CN1CCN(c2ccc(-c3ccc4ncc(C#N)c(Nc5ccc(F)c(Cl)c5)c4c3)cc2)CC1 | 0.42 | 13.1 |
| Cc1onc(-c2c(F)cccc2Cl)c1-c1ncc(-c2ccc(Cl)cc2)o1 | > 100 | > 100 |
| Oc1[nH]c2ccccc2c1N=NC(=S)N1CCCCC1 | – | 2.88 |
| CCOc1cc(-c2nc3ccccn3c2/N=C/c2cc([N+](=O)[O-])cc([N+](=O)[O-])c2O)ccc1O | – | > 100 |
| O=S(=O)(C(=Ic1ccccc1)S(=O)(=O)C(F)(F)C(F)(F)C(F)(F)C(F)(F)F)C(F)(F)C(F)(F)C(F)(F)C(F)(F)F | – | 33.7 |
| COC(=O)Nc1nc2ccc(Oc3ccc4nc(NC(=O)OC)[nH]c4c3)cc2[nH]1 | – | > 100 |
| NCC[Se][Se]CCN | – | 13.7 |
| C/C(=N/NC(=O)c1ccncc1)c1ccc(NC(=O)C(=O)Nn2c(=S)[nH]c3ccccc3c2=O)cc1 | – | > 100 |
| O=[N+]([O-])c1cc([N+](=O)[O-])c(Cl)c(Cl)c1Cl | 12.4 | 25.9 |
| CN(C)CCNc1ccc2ncnc3c2c1C(=O)c1ccccc1-3 | – | 1.72 |

| Structure (SMILES) | GI50 [µM] | TGI [µM] |
| --- | --- | --- |
| CC1=CCC2(C#N)CCC1C2O (configuration not stated) | – | > 100 |
| COc1cccc(C(=O)Nc2ccc(CN3CCc4nc5cc(OC)c(OC)cc5cc43)cc2)c1 | 10.4 | > 100 |
| COc1ccc(-c2cc(-c3ccccc3)n(C3OCC(OC(C)=O)C(OC(C)=O)C3OC(C)=O)c(=S)c2C#N)cc1 (configuration not stated) | – | > 100 |
| O=C1NCN(c2ccccc2)C12CCN(CCc1ccc3[nH]c(=S)[nH]c3c1)CC2 | – | > 100 |
| O=[N+]([O-])c1ccc(N=Nc2c(O)ccc3cc(S(=O)(=O)O)ccc23)cc1 | – | > 100 |
| c1cc(-c2csc(-c3ccsc3)c2)cs1 | – | > 100 |
| CC1=NN(c2nc(N)nc(/C(C#N)=C/c3ccc([N+](=O)[O-])o3)n2)C(C)(C)C1 | – | > 55.9 |
| NC1=NC(c2ccc(Cl)cc2)N(c2ccc(S(=O)(=O)Nc3ncccn3)cc2)C(N)=N1 (configuration not stated) | – | > 100 |
| CCN(CC)CCNc1ccc2ncn3c4c(OC)ccc(OC)c4c(=O)c1c23 | – | 26.3 |
| COc1ccc(N)c(C(O)CCNC(C)=O)c1 (configuration not stated) | – | > 100 |
| O=c1[nH]c(=O)n(C2CC(O)C(CO)O2)cc1NN=NCCc1ccccc1 (configuration not stated) | – | > 100 |
| N#CC(C#N)=Cc1c(-c2ccccc2)[nH]c2ccccc12 | 11.3 | > 93.8 |
| Nc1ccc(-c2ncc3cc(-c4cccc(-c5cc6cnc(-c7ccc(N)cc7)nc6c6ccccc56)c4)c4ccccc4c3n2)cc1 | – | > 100 |
| [C-]#[O+].[Cl][Sn]([Cl])[Cl].[Cl][Sn]([Cl])[Cl].[Pt].c1ccc([PH+](c2ccccc2)c2ccccc2)cc1.c1ccc([PH+](c2ccccc2)c2ccccc2)cc1 | 36.5 | 90.1 |
| CC(C)(N)CO[C@H]1C[C@H]2CC[C@@]1(C)C2(C)C | – | 43.2 |
| Cc1cc(=O)n(-c2ccccc2)c(=O)o1 | – | > 100 |
| COc1c(C2=NC(C(C)C)CO2)ccc2ccccc12 (configuration not stated) | – | > 100 |
| CC(C)(C)N/N=C(\Cc1occc(=O)c1O)C(=O)Nc1ccc([N+](=O)[O-])cc1[N+](=O)[O-] | – | > 100 |
| O=C(/C=C1\C(=O)N(Cc2ccc([N+](=O)[O-])cc2)c2ccccc21)c1ccc(OCCN2CCCCC2)cc1 | 5.5 | 20 |
| Cc1ccc(C2CC(c3ccc([N+](=O)[O-])cc3)=Nc3ccccc3S2)cc1 (configuration not stated) | – | > 100 |
| CC1(C)C(c2ccccc2)=NN(O)c2ccccc21 | – | > 100 |
